# In patent US20250382269A1 (CFD Research Corporation, priority 2019, published 2025):
# System: B. subtilis cells
Structure (SMILES),cell wall disruption (FM 4-64 dye aggregation),"cell wall disruption (FM 4-64 dye aggregation) (B. subtilis cells, FIG. 1C)"
"Brc1ccc2[nH]cc(Sc3ccccc3Br)c2c1 [Compound 174I, 5-bromo-3-((2-bromophenyl)thio)-1H-indole]",aggregation and cell wall disruption,
"CC[C@H](C)[C@H](NC(=O)CN)C(=O)NCC(=O)N[C@@H](C)C(=O)N[C@H](C(=O)N[C@@H](CC(C)C)C(=O)N[C@@H](CCCCN)C(=O)N[C@H](C(=O)N[C@@H](CC(C)C)C(=O)N[C@H](C(=O)N[C@H](C(=O)NCC(=O)N[C@@H](CC(C)C)C(=O)N1CCC[C@H]1C(=O)N[C@@H](C)C(=O)N[C@@H](CC(C)C)C(=O)N[C@H](C(=O)N[C@@H](CO)C(=O)N[C@@H](Cc1c[nH]c2ccccc12)C(=O)N[C@H](C(=O)N[C@@H](CCCCN)C(=O)N[C@@H](CCCNC(=N)N)C(=O)N[C@@H](CCCCN)C(=O)N[C@@H](CCCNC(=N)N)C(=O)N[C@@H](CCC(N)=O)C(=O)N[C@@H](CCC(N)=O)C(N)=O)[C@@H](C)CC)[C@@H](C)CC)[C@@H](C)O)[C@@H](C)O)C(C)C)C(C)C [melittin, reference compound]",,aggregation and cell wall disruption

# Where two headings read alike, the source gives them in different places.
